The text below walks through data of patent publication US20100137158A1 (WISCONSIN ALUMNI RESEARCH FOUNDATION, published 2010).

Numbering of substitutions follows the chain as printed. Numbers in names are those of the source.

Assay [1] addresses T1, hen egg lysozyme (biotinylated) (hen, UniProt P00698 19-147, biotinylated).
T1 construct: also called irrelevant biotinylated ligand
Kind of assay: yeast surface display, flow cytometry. (In general: Flow cytometry measures light scatter and fluorescence of single cells or particles in a stream.)

The target of a further assay is T2, TrkA (UniProt P04629 33-423).
T2 construct: also called tyrosine kinase neurotrophin receptor TrkA; not shown: not described
Kind of assay: yeast surface display (data not shown).

Assay [2] addresses T3, recombinant human TrkC/Fc (human, UniProt Q16288 32-429).
T3 construct: Bought; not shown: Fc
T3 sequence (looked up): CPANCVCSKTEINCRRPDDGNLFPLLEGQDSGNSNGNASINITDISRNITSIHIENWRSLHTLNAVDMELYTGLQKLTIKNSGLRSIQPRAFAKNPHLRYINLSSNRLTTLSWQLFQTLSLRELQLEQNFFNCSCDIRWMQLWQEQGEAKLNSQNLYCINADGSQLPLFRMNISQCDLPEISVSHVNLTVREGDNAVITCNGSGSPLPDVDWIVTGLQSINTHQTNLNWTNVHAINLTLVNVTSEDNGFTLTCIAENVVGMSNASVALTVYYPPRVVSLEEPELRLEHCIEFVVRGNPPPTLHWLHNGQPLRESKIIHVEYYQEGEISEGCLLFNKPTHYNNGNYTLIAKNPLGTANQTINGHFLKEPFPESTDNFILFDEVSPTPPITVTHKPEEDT
Nature of the assay: yeast surface display (data not shown).

Assay [3] concerns the target T4, Recombinant monomeric human tyrosine kinase receptor B (TrkB) (human, UniProt Q16620 32-430, biotinylated using Sulfo-NHS-LC-biotin (unmodified in the check of paragraph 109)).
T4 construct: extracellular domain; Bought (R & D Systems); also called monomeric extracellular domain of a neurotrophin receptor (TrkB); biotinylated monomeric TrkB
T4 sequence (Q16620 32-430): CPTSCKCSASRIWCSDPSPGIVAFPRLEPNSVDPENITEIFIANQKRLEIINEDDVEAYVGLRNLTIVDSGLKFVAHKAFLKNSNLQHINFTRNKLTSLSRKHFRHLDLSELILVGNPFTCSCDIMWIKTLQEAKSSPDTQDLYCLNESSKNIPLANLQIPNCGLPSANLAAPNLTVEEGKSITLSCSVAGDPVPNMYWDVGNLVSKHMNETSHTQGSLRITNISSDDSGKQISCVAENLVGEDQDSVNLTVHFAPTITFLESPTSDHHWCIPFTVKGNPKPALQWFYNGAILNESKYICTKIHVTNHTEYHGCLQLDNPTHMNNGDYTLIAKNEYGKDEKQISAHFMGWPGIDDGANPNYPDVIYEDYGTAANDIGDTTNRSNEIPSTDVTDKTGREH
Nature of the assay: yeast surface display titration (FIG. 2C, single sample), flow cytometry.

In assay [4] the target is T4, Recombinant monomeric human tyrosine …. Nature of the assay: yeast surface display titration, flow cytometry; triplicate titrations, KD ± SD.
For assay [5] the target is unchanged. Kind of assay: soluble purified T3 titrated on TrkB-loaded beads, intrinsic GFP fluorescence by flow cytometry.
For assay [6] the target is unchanged. Nature of the assay: solution phase competition: soluble T3 with soluble TrkB, unbound TrkB measured with yeast displaying T3 by FACS.
Assay [7] has the same target. Kind of assay: yeast surface display titration of single-loop variant, flow cytometry.
The target in assay [8] is T5, biotin-phycoerythrin conjugate.
T5 construct: also called Biotin-PE; biotinylated PE
Kind of assay: yeast surface display titration, flow cytometry; single sample titration.

Assay [9] addresses T6, streptavidin-phycoerythrin conjugate (UniProt P22629 37-163). Nature of the assay: yeast surface display titration, flow cytometry; triplicate titrations, KD ± SD.
For assay [10], the target named is T6, streptavidin-phycoerythrin conjugate. Nature of the assay: yeast surface display titration, flow cytometry; single sample titration.
T6 sequence (P22629 37-163): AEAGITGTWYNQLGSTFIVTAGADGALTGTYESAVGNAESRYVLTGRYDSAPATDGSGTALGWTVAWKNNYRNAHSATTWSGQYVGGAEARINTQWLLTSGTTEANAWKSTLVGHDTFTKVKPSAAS

T1 sequence (P00698 19-147): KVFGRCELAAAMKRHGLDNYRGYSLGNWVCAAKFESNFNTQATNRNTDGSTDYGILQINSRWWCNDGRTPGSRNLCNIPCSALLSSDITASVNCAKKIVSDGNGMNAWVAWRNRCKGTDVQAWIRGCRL
Chain of TrkA (P04629 33-423): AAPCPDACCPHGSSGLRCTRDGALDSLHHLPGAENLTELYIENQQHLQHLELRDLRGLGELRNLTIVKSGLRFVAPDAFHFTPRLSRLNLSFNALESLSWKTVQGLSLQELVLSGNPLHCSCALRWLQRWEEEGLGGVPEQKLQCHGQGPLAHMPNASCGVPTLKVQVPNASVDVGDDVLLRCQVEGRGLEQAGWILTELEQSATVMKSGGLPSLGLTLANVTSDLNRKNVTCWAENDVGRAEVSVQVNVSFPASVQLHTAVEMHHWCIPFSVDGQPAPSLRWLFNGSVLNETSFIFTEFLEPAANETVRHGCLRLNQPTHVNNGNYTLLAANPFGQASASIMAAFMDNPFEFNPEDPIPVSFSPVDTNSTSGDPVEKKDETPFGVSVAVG

B1: T3 GFAb (designed binder)
chain: MSKGEELFTGVVPILVELNGDVNGHKFSVSGEGEGDATHGKLTLKFICTTGKLPVPWPTLVTTLGYGVQCFARYPDHMKQHDFFKSTMPEGYVQERTIFFKDLKVINPFTVRSTSDGTYKTRAEVKFEGGTLVNRIELKGIDFKEDGNILGHKLEYNYNSHNVYIMADKQKNGIKANFKIRHNIKSRNAWVVHRRTRDGSVQLADHYQQNTPIGDGPVLLPDNHYLSTQSKLSKDPNEKRDHMVLVEFVTAAGITHGMDELYK
notes: The format is named under assay in each row; also called GFAb T3
Broadly, the Kd is the equilibrium constant for the complex coming apart. Turning to B1, the binding result in assay [1] is given as “no binding (tested: 500 nM)”; in the assay with TrkA, “no binding”; in assay [2], “no binding”. In addition, the Kd in assay [3] was 2 nM; in [4] it was 3.2 nM; in assay [5] it was 34 nM; in assay [6] it was around 10 nM.

B2: T3 single-loop GFAb with the T3 172-173 binding loop in the 20-5-8 scaffold (surrogate loop at 102-103) (designed binder)
chain: B1 chain with V105Q, I106H, N107F, P108W, F109S, V111P, S113T
notes: also called single loop knock-in of T3
With B2, in assay [7], the Kd turned out to be 300 nM.

B3: T3 single-loop GFAb with the T3 102-103 binding loop in the 20-5-8 scaffold (surrogate loop at 172-173) (designed binder)
chain: B1 chain with N188E, A189R, W190D, V191Y, V192R, H193L, R194D, R195Y
notes: as for B2
As to B3, in [7], the dissociation constant Kd turned out to be 19 nM.

B4: GFAb 2 (Biotin-PE selection) (designed binder)
chain: MSKGEELFTGVVPILVELNGDVNGHKFSVSGEGEGDATHGKLTLKFICTTGKLPVPWPTLVTTLGYGVQCFARYPDHMKQHDFFKSTMPEGYVQERTIFFKDLKRGLFWPVLITSDGTYKTRAEVKFKGGTLVNRIELKGIDFKEDGNILGHKLEYNYNSHNVYIMADKQKNGIKANFKIRHNIKSRPNPVFRQNTRDGSVQLADHYQQNTPIGDGPVLLPDNHYLSTQSKLSKDPNEKRDHMVLVEFVTAAGITHGMDELYK
notes: Scaffold printed as 20-5-8 + E115K
Turning to B4, in [1], the binding result is “no binding (tested: 500 nM)”. Binding in assay [8] was characterised by a dissociation constant (Kd) of 1400 nM.

B5: 2.7 GFAb (designed binder)
chain: MSKGEELFTGVVPILVELNGDVNGHKFSVSGEGEGDATHGKLTLKFICTTGKLPVPWPTLVTTLGYGVQCFARYPDHMKQHDFFKSTMPEGYVQERTIFFKDLKVFSSLRYHVTSDGTYKTRAEVKFEGGTLVNRIELKGIDFKEDGNILGHKLEYNYNSHNVYIMADKQKNGIKANFKIRHNIKSRLRMDDTNPTRDGSVQLADHYQQNTPIGDGPVLLPDNHYLSTQSKLSKDPNEKRDHMVLVEFVTAAGITHGMDELYK
notes: Scaffold 20-5-8
For the molecule B5, in assay [1], the binding result is “no binding (tested: 500 nM)”. The molecule also showed a Kd in [9] of 140 nM.

B6: G6 GFAb (designed binder)
chain: MSKGEELFTGVVPILVELNGDVNGHKFSVSGEGEGDATHGKLTLKFICTTGKLPVPWPTLVTTLGYGVQCFARYPDHMKQHDFFKSTMPEGYVQERTIFFKDLKRVSRFLLTTTSDGTYKTRAEVKFEGGTLVNRIELKGIDFKEDGNILGHKLEYNYNSHNVYIMADKQKNGIKANFKIRHNIKSRKSRIISSQTRDGSVQLADHYQQNTPIGDGPVLLPDNHYLSTQSKLSKDPNEKRDHMVLVEFVTAAGITHGMDELYK
notes: Scaffold 20-5-8
Consider B6, for which, in [1], the binding result is “no binding (tested: 500 nM)”.

B7: G4 GFAb (designed binder)
chain: MSKGEELFTGVVPILVELNGDVNGHKFSVSGEGEGDATHGKLTLKFICTTGKLPVPWPTLVTTLGYGVQCFARYPDHMKQHDFFKSTMPEGYVQERTIFFKDLKRGVSKSFLLTSDGTYKTRAEVKFEGGTLVNRIELKGIDFKEDGNILGHKLEYNYNSHNVYIMADKQKNGIKANFKIRHNIKSRQGITKGYKTRDGSVQLADHYQQNTPIGDGPVLLPDNHYLSTQSKLSKDPNEKRDHMVLVEFVTAAGITHGMDELYK
notes: Scaffold 20-5-8
As for B7, the binding result in [1] is on record as “no binding (tested: 500 nM)”.

B8: G7 GFAb (designed binder)
chain: MSKGEELFTGVVPILVELNGDVNGHKFSVSGEGEGDATHGKLTLKFICTTGKLPVPWPTLVTTLGYGVQCFARYPDHMKQHDFFKSTMPEGYVQERTIFFKDLKNVIYPFLYATSDGTYKTRAEVKFEGGTLVNRIELKGIDFKEDGNILGHKLEYNYNSHNVYIMADKQKNGIKANFKIRHNIKSRRVTKTKHKTRDGSVQLADHYQQNTPIGDGPVLLPDNHYLSTQSKLSKDPNEKRDHMVLVEFVTAAGITHGMDELYK
notes: Scaffold 20-5-8
In the case of B8, the binding result in assay [1] is recorded as “no binding (tested: 500 nM)”.

B9: G8 GFAb (designed binder)
chain: MSKGEELFTGVVPILVELNGDVNGHKFSVSGEGEGDATHGKLTLKFICTTGKLPVPWPTLVTTLGYGVQCFARYPDHMKQHDFFKSTMPEGYVQERTIFFKDLKSHCLFRKCYTSDGTYKTRAEVKFEGGTLVNRIELKGIDFKEDGNILGHKLEYNYNSHNVYIMADKQKNGIKANFKIRHNIKSRARSIRMKVTRDGSVQLADHYQQNTPIGDGPVLLPDNHYLSTQSKLSKDPNEKRDHMVLVEFVTAAGITHGMDELYK
notes: Scaffold 20-5-8
Consider B9, for which the binding result in assay [1] is recorded as “no binding (tested: 500 nM)”.

B10: 2.17 GFAb (designed binder)
chain: MSKGEELFTGVVPILVELNGDVNGHKFSVSGEGEGDATHGKLTLKFICTTGKLPVPWPTLVTTLGYGVQCFARYPDHMKQHDFFKSTMPEGYVQERTIFFKDLKKARMRLFLMTSDGTYKTRAEVKFEGGTLVNRIELKGIDFKEDGNILGHKLEYNYNSHNVYIMADKQKNGIKANFKIRHNIKSREYGDTLLSTRDGSVQLADHYQQNTPIGDGPVLLPDNHYLSTQSKLSKDPNEKRDHMVLVEFVTAAGITHGMDELYK
notes: Scaffold 20-5-8
As for B10, the binding result in assay [1] was “no binding (tested: 500 nM)”. Also, the Kd in assay [10] is 110 nM.

B11: GFAb 5 (Biotin-PE selection) (designed binder)
chain: MSKGEELFTGVVPILVELNGDVNGHKFSVSGEGEGDATHGKLTLKFICTTGKLPVPWPTLVTTLGYGVQCFARYPDHMKQHDFFKSTMPEGYVQERTIFFKDLKSCSWCLFTLTSDGTYKTRAEVKFEGGTLVNRIELKGIDFKEDGNILGHKLEYNYNSHNVYIMADKQKNGIKANFKIRHNIKSRKNQMGMGKTRDGSVQLADHYQQNTPIGDGPVLLPDNHYLSTQSKLSKDPNEKRDHMVLVEFVTAAGITHGMDELYK
notes: Scaffold 20-5-8
B11: the binding result in assay [1] was “no binding (tested: 500 nM)”. Besides, the Kd in [8] was 260 nM.

B12: GFAb 16 (Biotin-PE selection) (designed binder)
chain: MSKGEELFTGVVPILVELNGDVNGHKFSVSGEGEGDATHGKLTLKFICTTGKLPVPWPTLVTTLGYGVQCFARYPDHMKQHDFFKSTMPEGYVQERTIFFKDLKNCRWCTYYLTSDGTYKTRAEVKFEGGTLVNRIELKGIDFKEDGNILGHKLEYNYNSHNVYIMADKQKNGIKANFKIRHNIKSRSTSNWMRMTRDGSVQLADHYQQNTPIGDGPVLLPDNHYLSTQSKLSKDPNEKRDHMVLVEFVTAAGITHGMDELYK
notes: Scaffold 20-5-8
As to B12, the binding result in assay [1] is “no binding (tested: 500 nM)”. Moreover, in assay [8], the affinity, expressed as Kd, was 190 nM.
